# Experimental data as given in PubChem BioAssay (NCATS).
# Inconclusive results, whose numbers are uncertain, are shown with a selection of clear calls. For part of these data: Potencies of inconclusive entries are doubtful fits and often do not repeat. Calls of active or inactive are those of the source. Unless noted, calls follow the shape of the dose curve; as a rule, active = well fitted curve in the direction sought with a large enough effect; inconclusive = small, poorly fitted or top-dose-only effect, or another doubt; inactive = no such curve, though single readings can be large; an effect the other way counts as inactive or inconclusive.
# Experiments:
# [1] = qHTS Assay for Identifying Gametocytocidal Compounds (AID 743244);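 also: % is scaled to controls: 0 for no effect and ±100 for the full control effect; actives lower the fluorescent signal which means gametocytes are killed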; settings: P. falciparum 3D7 stage III-V gametocytes, alamarBlue, 72 h; max response: stronger effect = lower value
# Outline: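 Viability read-out was resazurin reduction (alamarBlue, 24 h) measured at Ex 525/Em 598 nm. Beforehand, late-stage (III-V) 3D7 P. falciparum gametocytes at 20,000 cells/well were incubated with compound 72 h at 37C under 5% CO2.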
# [2] = qHTS of pediatric cancer cell lines to identify multiple opportunities for drug repurposing: Primary screen for DAOY cells (AID 1347090); settings: DAOY medulloblastoma viability, CellTiter-Glo luminescence, 48 h; activity change, negative = cytotoxic: at 46 µM (top of the series);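 also: plate controls were DMSO for no effect and bortezomib for full effect; nearly all actives have a fitted effect of over 55% in size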
# Outline: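 Eight- or eleven-point concentration series, 48 h treatment at 37 degrees C in growth media; readout CellTiter-Glo luminescence. Potency and efficacy were taken from the concentration-response curves.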
# [3] = qHTS of pediatric cancer cell lines to identify multiple opportunities for drug repurposing: Primary screen for NB1643 cells (AID 1347099);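 also: plate controls were DMSO neutral control for no effect and bortezomib positive control for full effect; nearly all actives have a fitted effect of over 50% in size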
# Outline: (§1)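 Following a 5-hour attachment period, cells at 500-1,000/well received compounds and were cultured for 48 hours. CellTiter-Glo was added and luminescence read to estimate viable, metabolically active cells.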
# [4] = qHTS of pediatric cancer cell lines to identify multiple opportunities for drug repurposing: Primary screen for Rh41 cells (AID 1347108);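 also: luminescence drop marks cytotoxic hits; nearly all actives have a fitted effect of over 70% in size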
# Outline: as §1
# [5] = molecular target: Cytochrome P450 2D6 (Homo sapiens) (UniProt P10635); experiment: Cytochrome P450 family 2 subfamily D member 6 (CYP2D6) small molecule antagonists: luciferase biochemical (cell-free) qHTS assay (AID 1645840; active = well fitted curve in the direction sought with a large enough effect in the repeat runs; inconclusive = weak or mixed curves; inactive = no such curve, though single readings can be large; an effect the other way counts as inactive or inconclusive; also: potency is read from the fitted curve at half-maximal effect; nearly all actives have a fitted effect of over 55% in size)
# Outline: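 P450-Glo luminescent screen: recombinant CYP2D6 enzyme–proluciferin substrate mix preincubated with compound 10 min at room temperature, then NADPH regeneration added for 1 h at room temperature. Detection reagent added for 20 min; luciferin light read as relative luminescence units.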
# [6] = Primary qHTS for inhibitors of nuclear receptor binding SET domain protein 2 (NSD2) in an RCH-ACV wild type WT cells (2C) (AID 1645877); settings: activity change, negative = cell killing: at 44.9 µM (top of the series) unless noted; also: nearly all actives have a fitted effect of over 70% in size; also: potency is read from the fitted curve at half-maximal effect; as to activity change, negative = cell killing: % is scaled to controls: 0 for no effect and ±100 for the full control effect
# [7] = tested on: CP191; experiment: qHTS profiling for inhibitors of Plasmodium falciparum proliferation (AID 504749);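 also: 0% = DMSO vehicle and full inhibition = artemisinin control; nearly all actives have a fitted effect of over 60% in size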; settings: P. falciparum in erythrocytes, SYBR Green DNA, 72 h; series mostly up to 28.7 µM
# Outline: (§2)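 Parasite proliferation within erythrocytes, 72 h exposure. Endpoint: SYBR Green I fluorescence after overnight lysis at room temperature. Controls: 0.29 uM artemisinin, DMSO.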
# [8] = tested on: CP217; experiment: as above; settings: P. falciparum in erythrocytes, SYBR Green DNA, 72 h; series mostly up to 28.7 µM
# Outline: as §2
# [9] = tested on: DIV14; experiment: as above; settings: P. falciparum in erythrocytes, SYBR Green DNA, 72 h; series mostly up to 28.7 µM
# Outline: as §2
# [10] = tested on: PC26; experiment: as above; settings: P. falciparum in erythrocytes, SYBR Green DNA, 72 h; series mostly up to 28.7 µM
# Outline: as §2
# [11] = tested on: TAB109; experiment: as above; settings: P. falciparum in erythrocytes, SYBR Green DNA, 72 h; series mostly up to 28.7 µM
# Outline: as §2
# [12] = tested on: CRL-7250; experiment: Cytotoxic Profiling of Annotated Libraries Using Quantitative High-Throughput Screening (AID 1296008); settings: Five cell lines viability, CellTiter-Glo ATP luminescence, 48-72 h; max response: stronger effect = lower value; also: nearly all actives have a fitted effect of over 60% in size; also: potency is read from the fitted curve at half-maximal effect
# Outline: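 Compounds were pin-transferred onto cells and incubated 48 or 72 hr at 37 degree Celsius, 95% humidity. CellTiter-Glo was added, plates sat 10 min at room temperature, then ATP-coupled luminescence was imaged as the viability read-out.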
# [13] = tested on: PA-1; experiment: Primary qHTS to identify gynecologic anti-cancer compounds using libraries of approved drugs and bioactive compounds (AID 1345084); settings: Gynecologic cancer cell panel viability, ATPlite luminescence, 48 h; series mostly up to 57.5 µM; also: nearly all actives have a fitted effect of over 55% in size; also: potency is read from the fitted curve at half-maximal effect; as to activity change, negative = cytotoxicity: % is scaled to controls: 0 for no effect and ±100 for the full control effect
# Outline: (§3)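 Five-point cytotoxicity, 48 h drug exposure at 37 C, 5% CO2, on cells seeded 16 h beforehand. ATP content read by ATPlite luminescence.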
# [14] = tested on: SKOV3; experiment: as above; settings: Gynecologic cancer cell panel viability, ATPlite luminescence, 48 h; series mostly up to 57.5 µM
# Outline: as §3
# [15] = tested on: Zika virus NS2B-NS3 protease (unlinked complex); experiment: Primary screen GU Rhodamine qHTS for Zika virus inhibitors: Unlinked NS2B-NS3 protease assay (AID 1347159); also: potency is read from the fitted curve at half-maximal effect; nearly all actives have a fitted effect of over 60% in size
# Outline: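 Compounds, tested up to 114 microM, were incubated for 15 minutes with 25 nM unlinked NS2B-NS3 protease at pH 8.0. Cleavage of 1.5 microM Rhodamine110 substrate was then followed by fluorescence for 15 minutes.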
# [16] = tested on: Zika virus NS2B-NS3 protease (linked construct); experiment: Primary screen NINDS Rhodamine qHTS for Zika virus inhibitors (AID 1347160); settings: activity change, negative = inhibition: at 57.1 µM (top of the series) unless noted
# Outline: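 Percent inhibition, normalized to uninhibited and enzyme-free controls, is fitted to a 4-parameter Hill equation. Fluorescence change comes from a 15-min cleavage of 1.5 microM bis-peptide Rhodamine110 substrate by 25 nM linked NS2B-NS3 at room temperature.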
# [17] = tested on: Hek293T; experiment: Primary qHTS to identify gynecologic anti-cancer compounds using libraries of approved drugs and bioactive compounds (AID 1345084); settings: Gynecologic cancer cell panel viability, ATPlite luminescence, 48 h, control line for the selectivity index; activity change, negative = cytotoxicity: at 57.5 µM (top of the series) unless noted; also: nearly all actives have a fitted effect of over 55% in size; also: potency is read from the fitted curve at half-maximal effect; as to activity change, negative = cytotoxicity: % is scaled to controls: 0 for no effect and ±100 for the full control effect
# Outline: as §3
# [18] = tested on: OV90; experiment: as above; settings: Gynecologic cancer cell panel viability, ATPlite luminescence, 48 h; series mostly up to 57.5 µM
# Outline: as §3
# [19] = Primary qHTS for inhibitors of nuclear receptor binding SET domain protein 2 (NSD2) in an isogenic RCH-ACV NSD2 p.E1099K mutant (9B) (AID 1645876); also: potency is read from the fitted curve at half-maximal effect; nearly all actives have a fitted effect of over 70% in size
# [20] = tested on: Tov-21-G; experiment: Primary qHTS to identify gynecologic anti-cancer compounds using libraries of approved drugs and bioactive compounds (AID 1345084); settings: Gynecologic cancer cell panel viability, ATPlite luminescence, 48 h; activity change, negative = cytotoxicity: at 57.5 µM (top of the series) unless noted; also: nearly all actives have a fitted effect of over 55% in size; also: potency is read from the fitted curve at half-maximal effect; as to activity change, negative = cytotoxicity: % is scaled to controls: 0 for no effect and ±100 for the full control effect
# Outline: as §3
# [21] = P-glycoprotein substrates identified in KB-8-5-11 adenocarcinoma cell line, qHTS therapeutic library screen (AID 1346987); also: potency is read from the fitted curve at half-maximal effect; nearly all actives have a fitted effect of over 65% in size
# Outline: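 KB-8-5-11, a colchicine-selected P-gp-overexpressing KB-3-1 subline, was grown without colchicine for the assay. Cells were seeded at 500 cells/well, dosed in concentration-response and incubated 72 h at 37 degree C, 5% CO2. Viability was read by CellTiter-Glo luminescence.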
# [22] = tested on: JEG-3; experiment: Primary qHTS to identify gynecologic anti-cancer compounds using libraries of approved drugs and bioactive compounds (AID 1345084); settings: Gynecologic cancer cell panel viability, ATPlite luminescence, 48 h; series mostly up to 57.5 µM; also: nearly all actives have a fitted effect of over 55% in size; also: potency is read from the fitted curve at half-maximal effect
# Outline: as §3
# [23] = tested on: Tov112D; experiment: as above; settings: Gynecologic cancer cell panel viability, ATPlite luminescence, 48 h; series mostly up to 57.5 µM
# Outline: as §3
# Tags tell the direction and shape of the fitted curve.
# Chain of UniProt P10635 (P10635 whole entry, looked up): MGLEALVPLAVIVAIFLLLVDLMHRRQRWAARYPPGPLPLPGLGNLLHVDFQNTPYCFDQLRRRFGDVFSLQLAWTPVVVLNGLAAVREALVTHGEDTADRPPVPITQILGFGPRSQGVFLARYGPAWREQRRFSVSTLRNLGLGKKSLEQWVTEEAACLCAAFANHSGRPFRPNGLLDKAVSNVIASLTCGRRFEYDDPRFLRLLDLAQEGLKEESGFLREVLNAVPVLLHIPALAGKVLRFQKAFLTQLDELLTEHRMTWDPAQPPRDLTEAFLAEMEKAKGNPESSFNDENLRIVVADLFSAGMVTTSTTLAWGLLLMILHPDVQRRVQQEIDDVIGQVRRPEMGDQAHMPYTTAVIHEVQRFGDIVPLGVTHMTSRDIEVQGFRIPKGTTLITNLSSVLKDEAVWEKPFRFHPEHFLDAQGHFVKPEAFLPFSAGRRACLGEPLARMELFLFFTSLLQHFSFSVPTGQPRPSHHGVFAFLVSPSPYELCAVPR
compound,measurement,setting,value
Nc1nc(N)c(-c2ccccc2)s1,max response,[1],inactive: -3.45%
same,Potency,[2],inactive
same,Potency,[3],inactive
same,Potency,[4],inactive
same,Potency,[5],"inconclusive: 27.5 µM [inhibitor, partial curve, poor fit]"
same,Potency,[6],inactive
same,Potency,[7],inactive
same,Potency,[8],inactive
same,Potency,[9],inactive
same,Potency,[10],inactive
same,Potency,[11],inactive
same,Potency,[12],"inconclusive: 0.841 µM [inhibitor, full curve, poor fit]"
same,Potency,[13],"inconclusive: 39.8 µM [rising, single point]"
same,Potency,[14],inactive
CCOc1cc(CC(=O)NC(CC(C)C)c2ccccc2N2CCCCC2)ccc1C(=O)O (stereo not given),Potency,[15],active: 20 µM
same,Potency,[16],"inconclusive: 28.2 µM [inhibitor, single point]"
same,Potency,[12],"inconclusive: 5.8 µM [inhibitor, single point]"
same,Potency,[17],inactive
same,Potency,[14],"inconclusive: 39.8 µM [rising, single point]"
C/C=C(\C)C(=O)O[C@H]1[C@H](O)[C@]2(COC(C)=O)[C@H](O)C[C@]3(C)C(=CCC4[C@@]5(C)CC[C@H](O[C@@H]6O[C@H](C(=O)O)[C@@H](O[C@@H]7O[C@H](CO)[C@@H](O)[C@H](O)[C@H]7O)[C@H](O)[C@H]6O[C@@H]6O[C@H](CO)[C@@H](O)[C@H](O)[C@H]6O)[C@](C)(CO)C5CC[C@]43C)[C@@H]2CC1(C)C (stereo not given in full),Potency,[15],"inconclusive: 6.31 µM [inhibitor, full curve]"
same,max response,[12],inactive: -9.07%
same,"activity change, negative = cytotoxicity",[18],inactive: -1.43% [at 11.6 µM]
CC(=O)O[C@@H]1CC2C(C)(C)C(=O)C=C[C@]2(C)C2CC[C@]3(C)C(=CC(=O)[C@@H]3c3ccoc3)[C@@]21C (stereo not given in full),Potency,[19],"inconclusive: 14.2 µM [inhibitor, single point]"
same,Potency,[6],"inconclusive: 10 µM [inhibitor, single point]"
same,max response,[12],inactive: 0.62%
same,Potency,[18],"inconclusive: 17.8 µM [cytotoxic, partial curve, poor fit]"
same,Potency,[13],inactive
same,Potency,[14],inactive
Nc1ncnc2c1C(=O)N(c1ccc(C3CCC(CC(=O)O)CC3)cc1)CCO2 (stereo not given),max response,[12],inactive: 2.41%
same,Potency,[18],inactive
O=C(NCC(O)CO)c1ccncc1Nc1ccc(I)cc1F (stereo not given),Potency,[5],"inconclusive: 21.3 µM [inhibitor, partial curve, poor fit]"
same,Potency,[19],"inconclusive: 20.5 µM [inhibitor, single point]"
same,Potency,[6],"inconclusive: 16.3 µM [inhibitor, partial curve]"
same,Potency,[12],active: 6.51 µM
same,Potency,[18],active: 0.0794 µM
same,Potency,[20],active: 1.58 µM
C=C1C(=O)O[C@@H]2/C=C(\C)CC/C=C(\C)CC[C@@H]12,Potency,[21],"inconclusive: 29.1 µM [inhibitor, single point]"
same,Potency,[6],active: 7.28 µM
same,Potency,[12],"inconclusive: 29.1 µM [inhibitor, single point]"
same,Potency,[22],"inconclusive: 39.8 µM [cytotoxic, single point]"
same,Potency,[13],"inconclusive: 25.1 µM [cytotoxic, single point]"
same,Potency,[20],"inconclusive: 25.1 µM [cytotoxic, single point]"
CC12CCC(OC3OC(CO)C(O)C(OC4OC(CO)C(O)C(O)C4O)C3O)CC1CCC1C2CCC2(C)/C(=C3/COC(=O)C3)CCC12O (stereo not given),max response,[12],inactive: -8.75%
same,Potency,[13],inactive
same,Potency,[23],"inconclusive: 3.16 µM [cytotoxic, partial curve, poor fit]"
